Results on 48 compounds are retold here after PubChem BioAssay AID1508623 (National Center for Advancing Translational Sciences (NCATS), 2021).

Structures are written as SMILES. Among all 48,000 compounds or so, about 450 (0.94%) were called active. Not shown: some 19% with an inconclusive outcome. Calls come from the whole dose curve; as a rule, active = well fitted inhibition curve with a large enough effect; inconclusive = small, poorly fitted or top-dose-only effect; inactive = no such curve, though single readings can be large or run the other way. This is one part of the list.

A short description of this experiment: Primary qHTS for Identification of Small Molecule Inhibitors of Huntingtin Promoter Activity. Note: nearly all actives have a fitted effect of over 50% in size. The settings on record: HEK293 HTT promoter firefly luciferase reporter (activity 0% = vehicle and -100% = no light), 24 h; series mostly up to 57.5 µM; activity change, negative = inhibition: at the top concentration. Put shortly: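 HEK293 cells carrying firefly luciferase reporters were seeded at 2,500 per well in Opti-MEM and cultured for 24 h. They were then treated with compounds at up to 57.5 uM final for 24 h at 37 degrees C before Dual-Glo luminescence readout.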
For orientation: In qHTS, concentration-response curves come from the screen itself.
With `Fc1ccc(Cc2cn3cc(-c4ccc(F)cc4)nc3s2)cc1`, the “activity change, negative = inhibition” value is inactive: -22.4%.
Under `COc1cc(NC(=O)c2cc3cc4cc(OC)ccc4nc3o2)cc(OC)c1` stands inactive: -1.37%; under `CCCCNC(=O)NS(=O)(=O)c1ccc(N)cc1`, inactive: -7.15%; under `CCOc1cc(C2NC(=O)c3c(sc4c3CCN(C)C4)N2)ccc1OC(=O)c1ccc(F)cc1` (stereo not drawn), inactive: 13.4%.
For the compound `COC(=O)c1sc2ccccc2c1S(=O)(=O)N1CCN(c2ccc(C(C)=O)cc2)CC1`, the “activity change, negative = inhibition” value is inactive: -30.8%.
Turning to `CC(=O)c1cc(-c2ccc(F)cc2)n(CCC(=O)NC2CCCCC2)c1C`, the “activity change, negative = inhibition” value was inactive: -25.7%.
Under `CC(C)CNc1cc(NC2CCCCC2)c2c3c(onc13)-c1ccccc1C2=O` stands inactive: -28.4%; under `Cc1ccc(Cl)cc1N1CCN(C(=O)c2cn(C)c3ccc(S(=O)(=O)N4CCCCC4)cc3c2=O)CC1`, inactive: -16.6% [at 11.5 µM]; under `CSc1ccc(CCNC(=O)CCc2c(C)nc3c4cccnc4nn3c2C)cc1`, inactive: -17.1%.
Under `COc1cccc(CNCc2c(C(=O)O)c(C)n(Cc3ccc(F)cc3Cl)c2C)c1OC` stands inactive: -12.5%.
Next, `CCSc1nc2sc3c(c2c(=O)n1-c1ccc(C)cc1)CCCC3`: inactive: -20.8%; `CCn1c(=O)n(CC2CCC(C(=O)NC(C)C)CC2)c(=O)c2sccc21` (stereo not drawn): inactive: 0.692%.
For `CC(C)(C)c1cc(NC(=O)Nc2ccc(-c3cn4c(n3)sc3cc(OCCN5CCOCC5)ccc34)cc2)no1`, the “activity change, negative = inhibition” value is inactive: 8.98%.
In the case of `COc1ccc(NC(=O)CSc2c(C(C)C)cnc3c2c(=O)n(C)c(=O)n3C)c(OC)c1`, the “activity change, negative = inhibition” value is inactive: 0.303%.
Under `CCOC(=O)c1cc(CC)sc1NC(=O)COc1ccccc1C` stands inactive: -13.8%.
Take `Cc1cc(NC(=O)CN2CCC(O)CC2)nc2c1c(=O)oc1ccccc12`: the “activity change, negative = inhibition” value was inactive: 3.43%.
For `COc1ccc(C(=O)NCC(c2ccc3c(c2)OCO3)N2CCN(C)CC2)cc1OC` (stereo not drawn), the “activity change, negative = inhibition” value was inactive: -3.93%.
`CCOC(=O)c1c(C)[nH]c(C)c1S(=O)(=O)N1CCC(C(=O)Nc2ccc(OC)c(OC)c2)CC1`: the “activity change, negative = inhibition” value was inactive: -10.6%.
Next, `CCN1CCN(c2ncnc3c2cnn3-c2ccc(F)cc2)CC1`: inactive: 57.4%; `COc1ccc(CC(=O)Nc2ccc(-c3nc4ccccc4s3)c(C)c2)cc1`: inactive: 31.7%.
For `CC(C)c1nc2sc3c(N4CCCCC4)ncnc3c2c2c1CCCC2`, the “activity change, negative = inhibition” value was inactive: -1.22%.
Next, `CCOc1ccc(-n2c(SCC(=O)c3ccccc3)nc3c([nH]c4ccccc43)c2=O)cc1`: inactive: -5.26%.
As to `COC(=O)c1ccc(CSc2nc3ccncc3n2Cc2ccc(F)cc2)cc1`, the “activity change, negative = inhibition” value is inactive: -9.77%.
`COCC(C)Nc1ncnc2c1cnn2-c1cccc(Cl)c1` (stereo not drawn): the “activity change, negative = inhibition” value is inactive: 18%.
`COc1ccc(C(=O)Oc2ccc(C3NC(=O)c4c(sc5c4CCN(C)C5)N3)cc2OC)cc1` (stereo not drawn): the “activity change, negative = inhibition” value was inactive: 8.85%.
Under `Cc1cccc(Cc2c(C)nc3nc(SCc4cccc(F)c4)nn3c2C)c1` stands inactive: -25.6%; under `O=S(=O)(c1ccccc1)c1nnn2c1nc(NC1CCCCCC1)c1sccc12`, inactive: -1.8%; under `CCOc1ccc(CCNC(=O)CN2C(=O)COc3ccc(S(=O)(=O)N(CC)CC)cc32)cc1`, inactive: -24.6%.
Next, `Cc1ccc(Cn2ccnc2SCC(=O)NC2CCCC2)cc1`: inactive: -19.5%; `COc1cc(S(=O)(=O)n2ccnc2C(C)C)ccc1Br`: inactive: -14%; `COc1ccc2c(CNCc3ccco3)c(C(=O)O)n(Cc3ccccc3)c2c1`: inactive: -20.5%.
As for `C=CCOc1ccccc1OCC(O)CNC(C)C` (stereo not drawn), the “activity change, negative = inhibition” value was inactive: 6.44%.
Take `COc1ccc(N2CCN(C(=O)c3c4c(nc5ccccc35)C(=O)N(C3CCCCC3)C4)CC2)cc1`: the “activity change, negative = inhibition” value was inactive: -10.1%.
Under `O=C(Nc1ccc2nc(SCC(=O)N3CCCC3)sc2c1)c1cccc(F)c1` stands inactive: -7.02%.
Next, `CCc1ccc(-n2c(=O)c3ccc(C(=O)NCCc4ccccc4)cc3n(Cc3ccccc3C#N)c2=O)cc1`: inactive: -11.7%; `COc1ccc(-c2nc3ccccc3o2)cc1NC(=O)c1ccc(OCC(C)C)cc1`: inactive: 5.39%.
Next, `COc1ccc(-c2nnc(SCC(=O)c3ccc(NC(C)=O)cc3)o2)cc1OC`: inactive: 1.94%.
On to `COC(=O)c1c(-c2cccs2)csc1NC(=O)c1ccc(C(C)(C)C)cc1`, for which the “activity change, negative = inhibition” value was inactive: -12.6%.
Under `CCOC(=O)c1c(-c2ccc(C)cc2C)csc1NC(=O)c1ccccc1Cl` stands inactive: -6.6%.
Next, `NC(=O)C1CCN(C(=O)c2ccc3c(c2)N(Cc2cccc(Cl)c2)C(=O)c2ccccc2S3(=O)=O)CC1`: inactive: -22.2%.
Under `Cc1ccc2c(=O)cc(C(=O)Nc3c(C(=O)c4ccccc4)oc4ccccc34)oc2c1` stands inactive: 4.18%; under `CCOc1ccc(NS(=O)(=O)c2ccc3[nH]cc(C(=O)N(C)C4CCCCC4)c(=O)c3c2)cc1`, inactive: 3.55%.
In the case of `O=C(NCCCN1CCCCC1)c1ccc2c(c1)sc1nc(-c3ccc(F)cc3)cn12`, the “activity change, negative = inhibition” value was inactive: -8.53%.
Regarding `COCCNC(=O)Cn1cc2c(n1)-c1c(oc(C(=O)N3CCCC3)c1C)CC2`, the “activity change, negative = inhibition” value was inactive: 0.14%.
Next, `NC(=O)Cn1c(=O)n(CCCCCC(=O)NCc2ccccc2Cl)c(=O)c2sccc21`: inactive: -4.72%.
Under `O=C(O)c1ccc[n+]([O-])c1` stands inactive: 2.84%.
Next, `COC(=O)c1c(-c2cccs2)csc1NC(=O)COc1ccccc1`: inactive: 42.7%; `CC(CNC(=O)c1ccc(Nc2nc3ccccc3n3nnnc23)cc1)c1ccccc1` (stereo not drawn): inactive: 12.5%.
